# Over roughly 110,000 compounds, “z-score” has its median near -0.1; the highest 2% begin near 2. Some of the results follow. The source made the active and inactive calls.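 How the source made its calls: active means z-score in the third read window above 3 or below -3; inactive means the rest.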
# Target: Metabotropic glutamate receptor 8 (Rattus norvegicus) (UniProt P70579)
# Experiment: rat mGluR8 modulators via GIRK flux, primary screen, cell-based, thallium flux, HTS (AID 488969)
# Details: HEK293 rat mGluR8, GIRK (G protein-gated inwardly rectifying potassium channel) thallium flux, FluoZin2; at 10 µM; stronger effect = higher value; submaximal glutamate (EC20) added with thallium
# Sequence of UniProt P70579 (P70579 whole entry, looked up): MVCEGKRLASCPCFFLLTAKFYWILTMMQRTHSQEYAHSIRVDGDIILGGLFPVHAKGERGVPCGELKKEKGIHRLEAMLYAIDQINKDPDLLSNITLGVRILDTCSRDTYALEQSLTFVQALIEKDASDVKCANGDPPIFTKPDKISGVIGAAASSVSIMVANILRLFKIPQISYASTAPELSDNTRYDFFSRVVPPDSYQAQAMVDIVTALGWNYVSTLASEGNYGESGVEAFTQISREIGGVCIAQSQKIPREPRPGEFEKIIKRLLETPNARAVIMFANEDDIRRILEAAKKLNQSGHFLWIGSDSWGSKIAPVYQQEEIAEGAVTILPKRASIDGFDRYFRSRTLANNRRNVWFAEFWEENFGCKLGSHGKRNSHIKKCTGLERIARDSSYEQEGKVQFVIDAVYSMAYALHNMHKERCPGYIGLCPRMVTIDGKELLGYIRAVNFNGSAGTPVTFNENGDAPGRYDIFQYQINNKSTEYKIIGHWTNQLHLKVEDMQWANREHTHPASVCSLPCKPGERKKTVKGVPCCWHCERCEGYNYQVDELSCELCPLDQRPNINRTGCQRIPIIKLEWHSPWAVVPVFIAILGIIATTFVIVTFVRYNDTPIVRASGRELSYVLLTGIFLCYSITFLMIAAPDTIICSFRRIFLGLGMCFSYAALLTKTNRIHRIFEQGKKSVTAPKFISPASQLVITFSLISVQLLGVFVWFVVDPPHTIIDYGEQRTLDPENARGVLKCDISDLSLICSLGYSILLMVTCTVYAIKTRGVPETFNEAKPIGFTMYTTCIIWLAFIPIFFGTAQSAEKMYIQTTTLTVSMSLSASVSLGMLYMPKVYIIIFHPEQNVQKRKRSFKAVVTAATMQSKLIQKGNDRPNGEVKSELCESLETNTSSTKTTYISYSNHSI
row,Structure (SMILES),z-score
1,CCc1nnc(NC(=O)c2ccc(S(=O)(=O)NCC(C)C)cc2)s1,-0.367
2,O=C(CN1C(=O)NC2(CCCCCCC2)C1=O)NCc1cccs1,-0.142
3,CCCNC(=O)CS(=O)Cc1nc(-c2ccc(OC)cc2)oc1C (stereo not given),0.1
4,COc1ccccc1CN(Cc1nc2ccccc2c(=O)[nH]1)S(=O)(=O)c1ccc2ccccc2c1,0.217
5,Cc1csc(NC(=O)c2cccc(Cn3nc(C)c(Br)c3C)c2)n1,-0.225
6,N#CC1=C(N)Nc2nc3ccccc3n2C1c1ccc(Cl)cc1 (stereo not given),-0.0798
7,COc1ccc(C(=O)NCC(=O)OCC(=O)Nc2cc(OC)ccc2OC)cc1,-0.0485
8,Cc1cccc(N2C(=O)NC3(CCCCC3)C2=O)c1,0.753
9,CCOC(=O)c1sc(NC(=S)NC(=O)c2ccco2)nc1C,active: 7.57
10,CC(=O)c1cccc(NC(=O)c2cnn3ccccc23)c1,-0.0821
11,O=C(NCc1ccco1)c1ccc(C(=O)NCc2ccco2)s1,0.211
12,COc1ccc2[nH]c(=O)c(CN(CC3CCCO3)C(=O)Nc3ccccc3)cc2c1 (stereo not given),0.117
13,COc1cc(CNCCN2CCOCC2)ccc1OCc1ccc(Cl)cc1Cl,1.1
14,Cc1ccc(NC(=O)CCN2C(=O)CSC2=O)cc1,-0.108
15,Cc1ccc(-c2nc3sc4c(N)ncnc4c3c3c2CCCC3)cc1,-0.958
16,Cc1nn(C)c(Oc2ccccc2)c1[N+](=O)[O-],-0.158
17,COC(=O)/C=c1/s/c(=C(/C#N)C(=O)NCc2ccccc2)n(-c2ccccc2)c1=O,-0.262
18,Cc1cc(NC(=O)CCC(=O)N(Cc2ccco2)C(C(=O)NC2CCCCC2)c2ccccc2)no1 (stereo not given),-0.181
19,Cc1cccc(Nc2nnc(SCC(=O)Nc3ccccc3[N+](=O)[O-])s2)c1C,-0.242
20,Cn1c(CCNC(=O)c2ccco2)nc2cc(NC(=O)NC3CCCCC3)ccc21,0.635
21,CCOC(=O)c1ccc(NCc2nc3ccccc3n2C)cc1,-0.703
22,O=c1c2cc(N3CCOCC3)ccc2[nH]c(=S)n1CCCN1CCCC1,-0.171

row,Structure (SMILES),z-score
1,CC1=CC(C)(C)N(C(=O)CN2C(=O)c3ccccc3C2=O)c2ccccc21,-0.18
2,COCCNC(=S)N1CCc2cc(OC)c(OC)cc2C1COc1ccc(C(C)C)cc1 (stereo not given),-0.275
3,CC(NC(=O)NCC1CCCO1)(C(F)(F)F)C(F)(F)F (stereo not given),0.483
4,Cc1ccc(S(=O)(=O)N2CCOCC2)cc1NC(=O)CSc1cccc[n+]1[O-],-0.145
5,COc1ccc(/C=C/C(=O)OCC(=O)Nc2ccc(Cl)cc2F)cc1S(=O)(=O)N1CCOCC1,-0.323
6,C/C(CC(=O)Nc1cccc(F)c1)=N\NC(=O)C(=O)NC1CCCCC1,-0.24
7,O=C(Nc1cc(Cl)ccc1Cl)c1ccc(OC(=O)c2ccco2)cc1,-0.249
8,Cc1cnc(C(=O)OCC(=O)NCCc2ccccc2)cn1,-0.972
9,COc1ccccc1CNS(=O)(=O)c1ccc2c(c1)oc(=O)n2C,-0.394
10,Cc1ccc(S(=O)(=O)CC(=O)c2ccc(C(C)(C)C)cc2)cc1,-0.39
11,Cc1ccc(C(=O)N2CC3(C(C)C)CN(C(=O)c4ccc(C)cc4)CC(C(C)C)(C2)C3=O)cc1,-0.222
12,C=CCCCOc1ccc(C(=O)O)cc1,-0.341
13,c1ccc(-c2ccc(C3=Nn4c(Cn5nnc6ccccc65)nnc4SC3)cc2)cc1,0.0434
14,CCCn1c(Nc2ccc(Cl)cc2)nc2ccccc21,-0.0675
15,COc1cc2[nH]c(=S)n(Cc3ccc(C)o3)c(=O)c2cc1OC,-0.064
16,CC(C)Cc1nnc(NC(=O)CSc2nc(N)cc(=O)[nH]2)s1,-0.113
17,Cc1cc(C)n(-c2nc3ccccc3c(=O)n2OCCOc2ccccc2)n1,-0.385
18,CC(Oc1ccc2oc3ccccc3c2c1)C(=O)NC12CC3CC(CC(C3)C1)C2 (stereo not given),-0.213
19,CCN(CC)S(=O)(=O)c1cccc(NC(=O)c2cc3ccccc3o2)c1,0.036
20,O=C(O)CCCC(=O)N1N=C(c2c(-c3ccccc3)c3cc(Cl)ccc3[nH]c2=O)CC1c1cccs1 (stereo not given),-0.323
21,CCCS(=O)(=O)N1CCCC(C(=O)NCc2cccnc2)C1 (stereo not given),0.129
22,Cn1cc(C(=O)N/N=C/c2cccs2)c2ccccc21,-0.0725

row,Structure (SMILES),z-score
1,Cc1ccc(C)c(-c2nnc(OCC(=O)Nc3cc(C)on3)c3ccccc23)c1,-1.13
2,COc1ccc(NC(=O)CC2C(=O)N(c3ccc(F)cc3)C(=S)N2NC(=O)c2ccccc2)cc1 (stereo not given),-0.285
3,CC1CCCCN1S(=O)(=O)c1ccc(NC(=O)c2ccco2)cc1 (stereo not given),0.19
4,CCOC(=O)CSc1nnc(-c2ccc(NS(=O)(=O)c3ccc(C)cc3)cc2)o1,-0.0463
5,O=C(CC(CC(=O)c1ccccc1)C(=O)O)c1ccccc1,0.308
6,Cc1cc(C)nc(NC(=O)/C=C/c2ccc3c(c2)OCO3)c1,-0.353
7,CCCCN(C)S(=O)(=O)c1ccc(C(=O)Nc2nnc(-c3cccs3)o2)cc1,active: 7.18
8,COc1cc(C(=O)NC2=NCCS2)cc(OC)c1OC,0.124
9,COc1cccc(-c2nn(-c3ccccc3)cc2C(=O)Nc2nccs2)c1,1.25
10,COc1cc(C)nc(Nc2nc(C)c(C(C)=O)s2)n1,0.337
11,COc1ccc(-c2c(C(F)(F)F)oc3cc(OCC(=O)Nc4ccccc4C(F)(F)F)ccc3c2=O)cc1OC,-0.166
12,Cc1ccc(-c2noc(CCC(=O)Nc3ccc4c(c3)OCO4)n2)cc1,0.0347
13,COc1ccc(-c2nc(NC(=O)Cn3c(=O)oc4ccccc43)sc2C)cc1,-0.324
14,CCOc1ccc(OCC)c(S(=O)(=O)NCc2ccccn2)c1,-0.171
15,CC1(C)C(=O)OC(C(=O)c2ccc(C(C)(C)C)cc2)C(C)(C)C1=O (stereo not given),-0.103
16,CCOc1cccc(N2C(=O)CC(N(CCc3ccc(OC)c(OC)c3)C(=O)CC)C2=O)c1 (stereo not given),-0.147
17,O=C(C1CC=CCC1)N1CCN(C(=O)C2CC=CCC2)CC1 (stereo not given),0.183
18,COC(=O)C1CCN(S(=O)(=O)c2c(C)n(C)c(=O)n(C)c2=O)CC1,0.394
19,O=C(CO)N/N=C/c1ccccc1F,0.52
20,Nc1ccc(N2CCCCCC2)cc1,-0.49
21,Fc1ccc(CSc2nnc(-c3cccnc3)n2Cc2ccco2)cc1,-0.0445
22,CC(C)(C)n1nnnc1C(c1cccnc1)N1CCN(C(=O)c2ccco2)CC1 (stereo not given),0.232

row,Structure (SMILES),z-score
1,Cc1nc(SCC(=O)Nc2ccc3c(c2)OCCO3)c2oc3ccccc3c2n1,-0.371
2,CC1(C)C(=O)Nc2ccccc2N1C(=O)COC(=O)C1CCCCC1,-0.393
3,COc1ccc(-c2oc3ncn4nc(COc5ccccc5)nc4c3c2-c2ccc(OC)cc2)cc1,0.349
4,CC(C)NC(=O)c1ccc(N2CCOCC2)nc1,0.11
5,O=c1oc(/C=C/c2ccccc2)nc2sc3c(c12)CCC3,0.168
6,CC(=NCCN1CCNCC1)C1=C(O)CC(C)(C)CC1=O,-0.0318
7,COc1ccc(CNC(=S)NC2CCCC2)cc1,-0.126
8,Cc1cccc(OCCNc2cc(N3CCN(C)CC3)ccc2[N+](=O)[O-])c1,0.365
9,COc1ccccc1-c1noc(-c2cc(OC)c(OC)c(OC)c2)n1,-0.307
10,COCCN1C(=O)c2ccc(C(=O)O)cc2C1=O,0.445
11,CCN(CC)C(=O)CCc1nc2sc3c(c2c(=O)[nH]1)CCCC3,0.0581
12,O=C(Nc1ccc(C(=O)N2CCCCC2)cc1)C1CCCCC1,-0.147
13,Cc1nn2c(nc1=O)SCC(c1ccccc1)=N2,0.0358
14,CCC(C)(C)n1nnnc1C(C(C)C)N1CCN(C)CC1 (stereo not given),0.33
15,O=C(Oc1ccc(Br)cc1C(=S)N1CCCCC1)c1cc([N+](=O)[O-])cc([N+](=O)[O-])c1,0.762
16,Oc1ccccc1/C=N/NC1=NCCCCC1,0.265
17,CC12C(=O)N(Cc3ccco3)C(=O)C1C1c3ccccc3C2c2ccccc21 (stereo not given),-0.0557
18,O=C(NCc1ccccn1)c1cnc2sccn2c1=O,-0.351
19,CC(=O)Nc1ccc(S(=O)(=O)Nc2cccc(NC(=O)C(C)(C)C)c2)cc1,-0.165
20,Nc1nc(SCc2ccc(Cl)cc2)ns1,-0.8
21,CC1C(C(=O)Nc2ccccc2)CCCC1(C)C(=O)O (stereo not given),0.276
22,Cn1nc(CC(=O)NCCN2C(=O)CSC2=O)c2ccccc2c1=O,-0.832

row,Structure (SMILES),z-score
1,Cc1ccc(C(NC(=O)c2ccccc2)C(Cl)Cl)cc1 (stereo not given),-0.318
2,CCOC(=O)C1=C(c2ccccc2)Nc2ncnn2C1c1cc(OC)ccc1OC (stereo not given),-0.2
3,CN(C)C(=O)N1CCCC(C(=O)NCCc2ccccc2)C1 (stereo not given),0.092
4,COC(=O)c1cnn(-c2ccc(C)c(C)c2)c1-n1cccc1,-0.224
5,O=C(CN(c1ccccc1)S(=O)(=O)c1ccccc1)N1CCN(Cc2ccc3c(c2)OCO3)CC1,-0.639
6,CNc1ccc(Br)cc(C(=O)/C=C/c2cccc(OC)c2)c1=O,-0.351
7,COc1cccc(/C=N/NC(=O)Cn2ccnc2C)c1,-0.0436
8,O=C(N1CCOCC1)N1CCN(c2ccccc2F)CC1,0.209
9,CC(/C=N/n1c(C2CCCCC2)n[nH]c1=S)=C\c1ccccc1,2.13
10,O=C(NC12CC3CC(CC(C3)C1)C2)c1ccc(=O)oc1,0.319
11,CCOC(=O)c1c(C)[nH]c(C)c1C(=O)COC(=O)/C=C/c1ccc(OC(F)F)cc1,-0.244
12,Cc1ccc(CN2CCN(C(=O)CCN3C(=O)c4ccccc4C3=O)CC2)cc1,1.4
13,COc1ccc(Cl)cc1NC(=S)N1CCN(c2ccccn2)CC1,-0.203
14,COc1ccc(NC2=CC(c3ccc(OC)c(OC)c3)N(c3ccc(OC)cc3)C2=O)cc1 (stereo not given),-0.044
15,CCOC(=O)c1nn(-c2ccccc2)c(=O)cc1SC(C)CC (stereo not given),-0.352
16,COC(=O)c1ccc(Cl)c(NC(=O)CN(c2ccc3c(c2)OCO3)S(C)(=O)=O)c1,0.625
17,Nc1nonc1C(=O)NCCNC(=O)c1cccs1,0.032
18,OCCNCc1cc(Br)ccc1OCc1ccc(Cl)cc1,0.286
19,O=C1C(c2ccc(F)cc2)N(CC2COc3ccccc3O2)C(=O)CN1C1CCCCC1 (stereo not given),0.063
20,CCOC(=O)c1c(C)oc2cc(Br)c(OC(=O)N3CCOCC3)cc12,-0.509
21,CCCCNC(=O)c1nnn(-c2ccccc2)c1N,-0.117
22,COc1cc(C2C3=C(CC(c4ccco4)CC3=O)Nc3ccccc3N2C(C)=O)cc(OC)c1OC (stereo not given),0.158

# Reference: PubChem BioAssay AID488969 (Vanderbilt High Throughput Screening Facility, 2010)
